Source: the supplement of paper PMC8728848
This is one part of the list.

Experiments:
Experiment in all cases: glycan array binding signal (z-score within array); higher = stronger binding
Conditions in all cases: glycan notation: IUPAC condensed, linker removed
[1] = biological target: Gal(b1-4)GlcNAc(b1-3)Gal(b1-4)GlcNAc(b1-3)Gal(b1-4)GlcNAc(b1-3)Gal(b1-4)GlcNAc(b1-2)Man(a1-3)[Gal(b1-4)GlcNAc(b1-3)Gal(b1-4)GlcNAc(b1-3)Gal(b1-4)GlcNAc(b1-3)Gal(b1-4)GlcNAc(b1-2)Man(a1-6)]Man(b1-4)GlcNAc(b1-4)GlcNAc
Summary of the method: (§1)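 The binding signal is a Z-score computed within each array. Data were drawn from 3228 arrays in the Consortium for Functional Glycomics database, restricted to those with a known protein sequence. Scores were averaged over arrays of the same protein sequence at different concentrations or buffers, and over linkers, and negative values can be taken as non-binding.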

[2] = biological target: Gal(b1-4)GlcNAc(b1-3)Gal(b1-4)GlcNAc(b1-3)Gal(b1-4)GlcNAc(b1-3)Gal(b1-4)GlcNAc(b1-2)Man(a1-3)[Gal(b1-4)GlcNAc(b1-3)Gal(b1-4)GlcNAc(b1-3)Gal(b1-4)GlcNAc(b1-3)Gal(b1-4)GlcNAc(b1-2)Man(a1-6)]Man(b1-4)GlcNAc(b1-4)[Fuc(a1-6)]GlcNAc
Summary of the method: as §1

[3] = biological target: Gal(b1-4)GlcNAc(b1-3)Gal(b1-4)GlcNAc(b1-3)Gal(b1-4)GlcNAc(b1-3)Gal(b1-4)GlcNAc(b1-2)[Gal(b1-4)GlcNAc(b1-3)Gal(b1-4)GlcNAc(b1-3)Gal(b1-4)GlcNAc(b1-3)Gal(b1-4)GlcNAc(b1-6)]Man(a1-6)[Gal(b1-4)GlcNAc(b1-3)Gal(b1-4)GlcNAc(b1-3)Gal(b1-4)GlcNAc(b1-3)Gal(b1-4)GlcNAc(b1-2)Man(a1-3)]Man(b1-4)GlcNAc(b1-4)[Fuc(a1-6)]GlcNAc
Summary of the method: as §1

[4] = biological target: Gal(b1-4)GlcNAc(b1-3)Gal(b1-4)GlcNAc(b1-3)Gal(b1-4)GlcNAc(b1-3)Gal(b1-4)GlcNAc(b1-3)Gal(b1-4)GlcNAc(b1-2)Man(a1-3)[Gal(b1-4)GlcNAc(b1-3)Gal(b1-4)GlcNAc(b1-3)Gal(b1-4)GlcNAc(b1-3)Gal(b1-4)GlcNAc(b1-3)Gal(b1-4)GlcNAc(b1-2)Man(a1-6)]Man(b1-4)GlcNAc(b1-4)GlcNAc
Summary of the method: as §1

[5] = biological target: Gal(b1-4)GlcNAc(b1-3)Gal(b1-4)GlcNAc(b1-3)Gal(b1-4)GlcNAc(b1-3)Gal(b1-4)GlcNAc(b1-3)Gal(b1-4)GlcNAc(b1-2)Man(a1-3)[Gal(b1-4)GlcNAc(b1-3)Gal(b1-4)GlcNAc(b1-3)Gal(b1-4)GlcNAc(b1-3)Gal(b1-4)GlcNAc(b1-3)Gal(b1-4)GlcNAc(b1-2)Man(a1-6)]Man(b1-4)GlcNAc(b1-4)[Fuc(a1-6)]GlcNAc
Summary of the method: as §1

[6] = biological target: Gal(b1-4)GlcNAc(b1-3)Gal(b1-4)GlcNAc(b1-3)Gal(b1-4)GlcNAc(b1-3)Gal(b1-4)GlcNAc(b1-3)Gal(b1-4)GlcNAc(b1-2)[Gal(b1-4)GlcNAc(b1-3)Gal(b1-4)GlcNAc(b1-3)Gal(b1-4)GlcNAc(b1-3)Gal(b1-4)GlcNAc(b1-3)Gal(b1-4)GlcNAc(b1-6)]Man(a1-6)[Gal(b1-4)GlcNAc(b1-3)Gal(b1-4)GlcNAc(b1-3)Gal(b1-4)GlcNAc(b1-3)Gal(b1-4)GlcNAc(b1-3)Gal(b1-4)GlcNAc(b1-2)Man(a1-3)]Man(b1-4)GlcNAc(b1-4)[Fuc(a1-6)]GlcNAc
Summary of the method: as §1

[7] = biological target: Gal(b1-4)GlcNAc(b1-3)Gal(b1-4)GlcNAc(b1-3)Gal(b1-4)GlcNAc(b1-3)Gal(b1-4)GlcNAc(b1-3)Gal(b1-4)GlcNAc(b1-3)Gal(b1-4)GlcNAc(b1-2)Man(a1-3)[Gal(b1-4)GlcNAc(b1-3)Gal(b1-4)GlcNAc(b1-3)Gal(b1-4)GlcNAc(b1-3)Gal(b1-4)GlcNAc(b1-3)Gal(b1-4)GlcNAc(b1-3)Gal(b1-4)GlcNAc(b1-2)Man(a1-6)]Man(b1-4)GlcNAc(b1-4)GlcNAc
Summary of the method: as §1

[8] = biological target: Gal(b1-4)GlcNAc(b1-3)Gal(b1-4)GlcNAc(b1-3)GalNAc
Summary of the method: as §1

[9] = biological target: Gal(b1-4)GlcNAc(b1-3)Gal(b1-4)GlcNAc(b1-3)[Gal(b1-4)GlcNAc(b1-3)Gal(b1-4)GlcNAc(b1-6)]GalNAc
Summary of the method: as §1

[10] = biological target: Gal(b1-4)GlcNAc(b1-3)Gal(b1-4)GlcNAc(b1-6)[Gal(b1-3)]GalNAc
Summary of the method: as §1

[11] = biological target: Gal(b1-4)GlcNAc(b1-3)Gal(b1-4)[Fuc(a1-3)]GlcNAc(b1-3)Gal(b1-4)[Fuc(a1-3)]GlcNAc
Summary of the method: as §1

[12] = biological target: Gal(b1-4)GlcNAc(b1-3)GalNAc
Summary of the method: as §1

[13] = biological target: Gal(b1-4)GlcNAc(b1-3)[Fuc(a1-3)GlcNAc(b1-6)]Gal(b1-4)Glc
Summary of the method: as §1

[14] = biological target: Gal(b1-4)GlcNAc(b1-3)[Gal(b1-4)GlcNAc(b1-6)]Gal(b1-4)GlcNAc
Summary of the method: as §1

[15] = biological target: Gal(b1-4)GlcNAc(b1-3)[GlcNAc(b1-6)]Gal(b1-4)GlcNAc
Summary of the method: as §1

[16] = biological target: Gal(b1-4)GlcNAc(b1-6)Gal(b1-4)GlcNAc
Summary of the method: as §1

[17] = biological target: Gal(b1-4)GlcNAc(b1-6)GalNAc
Summary of the method: as §1

[18] = biological target: Gal(b1-4)GlcNAc(b1-6)[Gal(b1-3)]GalNAc
Summary of the method: as §1

[19] = biological target: Gal(b1-4)GlcNAc(b1-6)[Gal(b1-4)GlcNAc(b1-3)]GalNAc
Summary of the method: as §1

Gal(b1-4)GlcNAc6P = biological target: Gal(b1-4)GlcNAc6P
Summary of the method: as §1

Gal(b1-6)Gal = biological target: Gal(b1-6)Gal
Summary of the method: as §1

Gal3S(b1-3)GalNAc = biological target: Gal3S(b1-3)GalNAc
Summary of the method: as §1

Gal3S(b1-3)GlcNAc = biological target: Gal3S(b1-3)GlcNAc
Summary of the method: as §1

B1: CFEM-CGl (Candida glabrata), Q6FRS0 (protein)
chain: VLATPPACLLACVAQVSKQSSQCHTLNQVGCFCENENTAIKNCLDSICPNGNSDAAYTAFKNSCGDVGKAVASV
B1 was tested, and the “glycan array binding signal (z-score)” value [1] was -0.107, the “glycan array binding signal (z-score)” value [2] was -0.096 and the “glycan array binding signal (z-score)” value [3] was 0.09. The “glycan array binding signal (z-score)” value [4] was -0.192, the “glycan array binding signal (z-score)” value [5] was 0.039 and the “glycan array binding signal (z-score)” value [6] was 0.454. The “glycan array binding signal (z-score)” value [7] was -0.009, the “glycan array binding signal (z-score)” value [8] was 0.84 and the “glycan array binding signal (z-score)” value [9] was 0.94. For the same binder, the “glycan array binding signal (z-score)” value [10] was 0.751, the “glycan array binding signal (z-score)” value [11] was -0.249 and the “glycan array binding signal (z-score)” value [12] was -0.422. For the same binder, the “glycan array binding signal (z-score)” value [13] was -0.483, the “glycan array binding signal (z-score)” value [14] was -0.249 and the “glycan array binding signal (z-score)” value [15] was -0.329. For the same binder, the “glycan array binding signal (z-score)” value [16] was 0.008, the “glycan array binding signal (z-score)” value [17] was -0.062 and the “glycan array binding signal (z-score)” value [18] was 0.894. For the same binder, the “glycan array binding signal (z-score)” value [19] was -0.013, the “glycan array binding signal (z-score)” value (Gal(b1-4)GlcNAc6P) was -0.285 and the “glycan array binding signal (z-score)” value (Gal(b1-6)Gal) was 0.159. The “glycan array binding signal (z-score)” value (Gal3S(b1-3)GalNAc) was -0.312 and the “glycan array binding signal (z-score)” value (Gal3S(b1-3)GlcNAc) was 0.064.
